# The other results are listed elsewhere or left out. Repeats are few or missing, and single values can be far off.
# Test system: Candida albicans DPL-15
# Experiment: growth (OD600) after compound treatment (apparently relative to screen median) (relative growth (fraction; screen median 1.02)); DPL-15 is a caspofungin-resistant clinical isolate; higher = more fungal growth (less antifungal activity)
# Details: 25 µM; RPMI 1640; 48 h; 30 °C
row,Structure (SMILES),growth
1,COc1ccc(N2C(=O)C3=C(C(C(C)C)=NCCN3C)C2c2cccc(C(F)(F)F)c2)cc1 (centres undefined),1.07
2,CCNC(=O)[C@H]1[C@H](C(=O)NCC)[C@@H](c2cc(OC)c(OC)c(OC)c2)[C@@H]1c1cc(OC)c(OC)c(OC)c1,1.05
3,CC(C)C1=NCC(C)(C)NC2=C1C(c1cccc(C(F)(F)F)c1)NC2=O (centres undefined),0.929
4,Nc1c(-c2ccc(Cl)cc2)cnc2c(-c3ccccn3)cnn12,0.943
5,CC(C)=CCc1cc(OCC(=O)NCC(=O)NCc2ccc(O)cc2O)cc2oc3cccc(O)c3c(=O)c12,1.14
6,C=CCN1C(=O)C2=C(C(C(C)C)=NCCN2)C1c1ccc2c(c1)OCO2 (centres undefined),1.15
7,COc1ccc(N2C(=O)C3=C(C(C(C)C)=NCCN3)C2c2ccc3c(c2)OCO3)cc1 (centres undefined),1.11
8,CCOC(=O)Cn1nnc(-c2ccc(COC(=O)CCCC[C@@H]3SC[C@@H]4NC(=O)N[C@@H]43)cc2)n1,1.17
9,C=CCC1=C([O-])[C@]2(CC=C)CC(=C)C[C@](C(=O)C(C)C)(C1=O)C2=O,1.16
10,O=C1OCCC=C1C(O)CCc1ccccc1 (centres undefined),1.11
11,CC(=O)OC[C@H]1O[C@H](C#CC2CCCC2)C=C[C@H]1OC(C)=O,0.998
12,CC(=O)OC[C@H]1O[C@H](n2cc(-c3ccc(C(C)(C)C)cc3)nn2)C=C[C@@H]1OC(C)=O,0.959
13,C=CCN1C(=O)c2[nH]nc(C)c2C1c1ccccc1 (centres undefined),0.932
14,O=S(=O)(c1ccc(F)cc1)N1CCCc2nc(-c3ccccc3)ccc21,0.907
15,CO[C@@H]1[C@H](O)CC[C@]2(O)CN(CCCOC(C)C)[C@@H](CC=C(C)C)[C@](C)(O)[C@@H]12,1.1
16,COc1cc(OC)c2c(=O)c(O)c(-c3ccc(N(C)C)cc3)n(C)c2c1,0.675
17,COc1ccc(C2=C(c3ccccc3)c3c(nc(-c4csc(C)n4)[nH]c3=O)C2=O)cc1,1.51
18,CC1=CC2=CC(=O)C=C(C)[C@]2(O)[C@@H]2C=C(C)C(=O)[C@@H]2C1,1.29
19,CN1CCN=C(c2ccccc2)C2=C1C(=O)N(Cc1ccccc1)C2c1cccc(C(F)(F)F)c1 (centres undefined),0.975
20,c1ccc([C@H]2c3cc4c(cc3O[C@H]3Oc5ccccc5[C@H]32)OCO4)cc1,1.05
21,CC(C)C1=NCCN(C)C2=C1C(c1ccccc1)N(Cc1ccccc1)C2=O (centres undefined),0.972
22,CC1=C[C@@H](C)O[C@@]2(C1)C(=O)Nc1cccc(Br)c12,0.899
23,COc1ccc(N2C(=O)C(O)=C(C(=O)CC(C)C)C2c2ccc(F)cc2)cc1 (centres undefined),1.13
24,COc1ccc(N2C(=O)C3=C(C(CC(C)C)=NCCN3C)C2c2ccccc2)cc1 (centres undefined),1.05
25,COCCN1C(NCc2cccc(C(F)(F)F)c2)=NC(c2ccccc2)C(C(=O)OC)=C1C (centres undefined),1.18

row,Structure (SMILES),growth
1,COC(=O)[C@]1([C@@H]2CCC(=O)O2)CC(=O)c2c(O)cc(C)c(-c3c(C)cc(O)c4c3O[C@@](C(=O)OC)([C@@H]3CCC(=O)O3)CC4=O)c2O1,1.35
2,COc1ccc(CO/N=C2/CCCC/C=C/CCNC(=O)c3c(O)cc(O)cc3C2)cc1,1.09
3,OC[C@H]1[C@@H](Cc2ccc3c(c2)OCO3)CO[C@@H]1c1ccc2c(c1)OCO2,0.982
4,COc1ccc([C@@]23Oc4cc(OC)cc(OC)c4[C@]2(O)[C@H](O)[C@H](C(=O)c2cc4ccccc4n2C)[C@H]3c2ccccc2)cc1,1.14
5,c1ccc2c(c1)C[C@H]1[C@@H](c3ccc4c(c3)OCO4)c3cc4c(cc3O[C@@H]21)OCO4,1.09
6,CC(=O)OC[C@H]1O[C@H](C#CC2=CCCCC2)C=C[C@@H]1OC(C)=O,0.852
7,CC1=C[C@@H](COc2ccccc2)O[C@@]2(C1)C(=O)N(C)c1ccccc12,0.939
8,COC(=O)[C@]12C[C@H](C)[C@@H]3[C@@H](C)[C@H](c4ccccc4[C@H]31)N2C(=O)C(F)(F)F,1.03
9,Cn1cc(Nc2cc(O)cc(O)c2C(=O)N2CCC(F)(F)C2)cn1,1.1
10,C#CCCCCCNC(=O)CC1(CNC(=O)c2cccc(/C=N/NS(=O)(=O)c3ccc(C)cc3)c2)CCCCC1,1.05
11,CC(=O)C1=C2C=CCCN2C(=O)NC1c1ccc(Cl)c(F)c1 (centres undefined),1.03
12,CC(=O)C1=C2C=CCCN2C(=O)N(C)C1c1ccccc1 (centres undefined),1.02
13,COC(=O)[C@@H]1[C@H](C(=O)OC)[C@@H](c2cc(OC)c(OC)c(OC)c2)[C@H]1c1cc(OC)c(OC)c(OC)c1,1.14
14,CS(=O)(=O)Oc1c(C[C@@]23CCCCC2=Nc2cc(Cl)cc(Cl)c23)occc1=O,1.09
15,OCCC[C@@]12C(I)=C3CCCC[C@H]3[C@@H]1CCc1cc3c(cc12)OCO3,1.01
16,COc1ccc(C(=O)C(CC=C(C)C)C(=O)c2c(OC)cc(OC)c(Br)c2O)c(OC)c1 (centres undefined),1.08
17,COc1cc([C@H]2[C@H](C(=O)NCc3ccccc3)[C@@H](C(=O)NCc3ccccc3)[C@@H]2c2ccc(O)c(OC)c2)ccc1O,0.959
18,CC(C)n1cc(Nc2cc(O)cc(O)c2C(=O)N2CC3CC3C2)cn1 (centres undefined),1.27
19,O=Cc1ccccc1OCc1ccccc1Br,0.929
20,COC(=O)C1=C(C(=O)OC)[C@@H]2N(Cc3ccccc3)c3ccccc3[C@@]23C[C@@H](C(=O)OC)N(S(=O)(=O)c2c(C)noc2C)C3=N1,0.955
21,C/C=C/[C@@H]1CC(=O)c2c(O)c(C)c(O)c(C)c2[C@]12C(=O)C=C(C)OC2=O,0.934
22,CC(C)(C)OC(=O)NCCCC#CCO,1.28
23,CC(C)c1nn(-c2ccccc2)c2c1C(c1cccc(C(F)(F)F)c1)NC2=O (centres undefined),0.937
24,CC(C)c1c2c(nn1Cc1ccccc1)C(=O)NC2c1ccc2c(c1)OCO2 (centres undefined),1.1
